# Measured values published in the supplement of paper PMC8728848.
# This is one part of the list.
# B1: Nc3LysM (protein)
# chain: QFTVPPDTTAEPNTIKTCTWWHVAGSGDSCTSIASTYGITSEQFARWDMETTDSPKNPSVATACKLTVGNSYCIENNFGQDDPPTPSISSSTLIGTATTSTTASTTTGNGISTPTPIQEGMETATTTTSSGNGITTPTPTQAGMETVGNCDRFHLVKSGDQCGTIASTYGITLANFYSWNPAVGTSCQSLWLDTYVCVRTIGFVPPKTTTTTTKKPTSTTSAGGVATPTPTQPGMETVSGCKKFHKGRGNVSTVASGDQCGTIATRYGISLANFYSWNPAVGSSCQTLWLDYYVCVGR
# Tests used:
# Assay in all cases: glycan array binding signal (z-score within array); higher = stronger binding
# Details in all cases: glycan notation: IUPAC condensed, linker removed
# [1] = target: Fuc(a1-2)[GalNAc(a1-3)]Gal(b1-3)GlcNAc(b1-6)GalNAc
# In short: (§1)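 Columns mapping to the same glycan were averaged after glycan names were converted to IUPAC-condensed notation. The data come from 3228 arrays in the Consortium for Functional Glycomics database, limited to those with an available protein sequence. Binding is reported as a within-array Z-score averaged across arrays of one protein sequence and across linkers.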
# [2] = target: Fuc(a1-2)[GalNAc(a1-3)]Gal(b1-4)Glc
# In short: as §1
# [3] = target: Fuc(a1-2)[GalNAc(a1-3)]Gal(b1-4)GlcNAc
# In short: as §1
# [4] = target: Fuc(a1-2)[GalNAc(a1-3)]Gal(b1-4)GlcNAc(b1-2)Man
# In short: as §1
# [5] = target: Fuc(a1-2)[GalNAc(a1-3)]Gal(b1-4)GlcNAc(b1-2)Man(a1-3)[Fuc(a1-2)[GalNAc(a1-3)]Gal(b1-4)GlcNAc(b1-2)Man(a1-6)]Man(b1-4)GlcNAc(b1-4)GlcNAc
# In short: as §1
# [6] = target: Fuc(a1-2)[GalNAc(a1-3)]Gal(b1-4)GlcNAc(b1-2)Man(a1-3)[Fuc(a1-2)[GalNAc(a1-3)]Gal(b1-4)GlcNAc(b1-2)Man(a1-6)]Man(b1-4)GlcNAc(b1-4)[Fuc(a1-6)]GlcNAc
# In short: as §1
# [7] = target: Fuc(a1-2)[GalNAc(a1-3)]Gal(b1-4)GlcNAc(b1-3)Gal(b1-4)GlcNAc
# In short: as §1
# [8] = target: Fuc(a1-2)[GalNAc(a1-3)]Gal(b1-4)GlcNAc(b1-3)Gal(b1-4)GlcNAc(b1-3)Gal(b1-4)GlcNAc
# In short: as §1
# [9] = target: Fuc(a1-2)[GalNAc(a1-3)]Gal(b1-4)GlcNAc(b1-3)GalNAc
# In short: as §1
# [10] = target: Fuc(a1-2)[GalNAc(a1-3)]Gal(b1-4)GlcNAc(b1-3)[Fuc(a1-2)[GalNAc(a1-3)]Gal(b1-4)GlcNAc(b1-6)]GalNAc
# In short: as §1
# [11] = target: Fuc(a1-2)[GalNAc(a1-3)]Gal(b1-4)GlcNAc(b1-6)GalNAc
# In short: as §1
# [12] = target: Fuc(a1-2)[GalNAc(a1-3)]Gal(b1-4)[Fuc(a1-3)]GlcNAc
# In short: as §1
# [13] = target: Fuc(a1-2)[GalNAc(a1-3)]Gal(b1-4)[Fuc(a1-3)]GlcNAc(b1-3)GalNAc
# In short: as §1
# [14] = target: Fuc(a1-2)[GalNAc(a1-4)]Gal(b1-4)GlcNAc
# In short: as §1
# [15] = target: Fuc(a1-2)[GalNAc(b1-3)]Gal
# In short: as §1
# Fuc(a1-3)GlcNAc = target: Fuc(a1-3)GlcNAc
# In short: as §1
# [16] = target: Fuc(a1-3)[Gal(b1-4)]Glc6S
# In short: as §1
# [17] = target: Fuc(a1-3)[Gal(b1-4)]GlcNAc
# In short: as §1
# [18] = target: Fuc(a1-3)[Gal(b1-4)]GlcNAc(b1-2)Man
# In short: as §1
# [19] = target: Fuc(a1-3)[Gal(b1-4)]GlcNAc(b1-2)Man(a1-3)[Fuc(a1-3)[Gal(b1-4)]GlcNAc(b1-2)Man(a1-6)]Man(b1-4)GlcNAc(b1-4)GlcNAc
# In short: as §1
# [20] = target: Fuc(a1-3)[Gal(b1-4)]GlcNAc(b1-2)Man(a1-3)[Fuc(a1-3)[Gal(b1-4)]GlcNAc(b1-2)Man(a1-6)]Man(b1-4)GlcNAc(b1-4)[Fuc(a1-6)]GlcNAc
# In short: as §1
# [21] = target: Fuc(a1-3)[Gal(b1-4)]GlcNAc(b1-3)Gal(b1-3)[Fuc(a1-4)]GlcNAc
# In short: as §1
# [22] = target: Fuc(a1-3)[Gal(b1-4)]GlcNAc(b1-3)Gal(b1-4)[Fuc(a1-3)]GlcNAc
# In short: as §1
# [23] = target: Fuc(a1-3)[Gal(b1-4)]GlcNAc(b1-3)Gal(b1-4)[Fuc(a1-3)]GlcNAc(b1-3)Gal(b1-4)[Fuc(a1-3)]GlcNAc
# In short: as §1
# [24] = target: Fuc(a1-3)[Gal(b1-4)]GlcNAc(b1-3)GalNAc
# In short: as §1
# [25] = target: Fuc(a1-3)[Gal(b1-4)]GlcNAc(b1-6)GalNAc
# In short: as §1
# [26] = target: Fuc(a1-3)[Gal(b1-4)]GlcNAc(b1-6)[Gal(b1-3)GlcNAc(b1-3)]Gal(b1-4)Glc
# In short: as §1
# [27] = target: Fuc(a1-3)[Gal(b1-4)]GlcNAc6S
# In short: as §1
# [28] = target: Fuc(a1-3)[Gal3S(b1-4)]Glc
# In short: as §1
# [29] = target: Fuc(a1-3)[Gal3S(b1-4)]GlcNAc
# In short: as §1
# [30] = target: Fuc(a1-3)[Gal3S(b1-4)]GlcNAc6S
# In short: as §1
# [31] = target: Fuc(a1-3)[GalNAc(b1-4)]GlcNAc
# In short: as §1
# [32] = target: Fuc(a1-3)[GalNAc(b1-4)]GlcNAc6S
# In short: as §1
# Fuc(a1-4)GlcNAc = target: Fuc(a1-4)GlcNAc
# In short: as §1
# Fuc(b1-3)GlcNAc = target: Fuc(b1-3)GlcNAc
# In short: as §1
# Gal(a1-2)Gal = target: Gal(a1-2)Gal
# In short: as §1
# Gal(a1-3)Gal = target: Gal(a1-3)Gal
# In short: as §1
binder,measurement,setting,value
B1,glycan array binding signal (z-score),[1],-0.237
same,glycan array binding signal (z-score),[2],-0.009
same,glycan array binding signal (z-score),[3],0.012
same,glycan array binding signal (z-score),[4],-0.174
same,glycan array binding signal (z-score),[5],-0.066
same,glycan array binding signal (z-score),[6],-0.117
same,glycan array binding signal (z-score),[7],-0.11
same,glycan array binding signal (z-score),[8],-0.189
same,glycan array binding signal (z-score),[9],-0.14
same,glycan array binding signal (z-score),[10],-0.211
same,glycan array binding signal (z-score),[11],-0.165
same,glycan array binding signal (z-score),[12],0.237
same,glycan array binding signal (z-score),[13],-0.076
same,glycan array binding signal (z-score),[14],-0.204
same,glycan array binding signal (z-score),[15],-0.092
same,glycan array binding signal (z-score),Fuc(a1-3)GlcNAc,-0.086
same,glycan array binding signal (z-score),[16],0.188
same,glycan array binding signal (z-score),[17],-0.119
same,glycan array binding signal (z-score),[18],-0.252
same,glycan array binding signal (z-score),[19],-0.153
same,glycan array binding signal (z-score),[20],-0.105
same,glycan array binding signal (z-score),[21],-0.113
same,glycan array binding signal (z-score),[22],-0.173
same,glycan array binding signal (z-score),[23],0.033
same,glycan array binding signal (z-score),[24],-0.152
same,glycan array binding signal (z-score),[25],-0.014
same,glycan array binding signal (z-score),[26],-0.151
same,glycan array binding signal (z-score),[27],0.031
same,glycan array binding signal (z-score),[28],-0.089
same,glycan array binding signal (z-score),[29],0.022
same,glycan array binding signal (z-score),[30],-0.105
same,glycan array binding signal (z-score),[31],-0.127
same,glycan array binding signal (z-score),[32],-0.225
same,glycan array binding signal (z-score),Fuc(a1-4)GlcNAc,-0.126
same,glycan array binding signal (z-score),Fuc(b1-3)GlcNAc,-0.013
same,glycan array binding signal (z-score),Gal(a1-2)Gal,0.243
same,glycan array binding signal (z-score),Gal(a1-3)Gal,-0.248
